Data taken from PubChem BioAssay AID1745853 (National Center for Advancing Translational Sciences (NCATS), 2022).
This is one part of the list. Further columns of the screen follow, without active or inactive calls.

Columns and labels:
Experiment in all cases: Primary Screen for Target Class Profiling of Small Molecule Inhibitors of Methyltransferases
[1] = target: Glycine N-methyltransferase (Homo sapiens) (UniProt Q14749); settings: purified enzyme, MTase-Glo SAH luminescence; measured here: GNMT inhibition; at 40 µM; stronger effect = lower value
Outline: (§1)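 Each enzyme was assayed with SAM and its substrate. SAH formation detected by MTase-Glo luminescence; single-point 40 uM screen[…].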

[2] = target: Guanidinoacetate N-methyltransferase (Homo sapiens) (UniProt Q14353); settings: purified enzyme, MTase-Glo SAH luminescence; measured here: GAMT inhibition; at 40 µM; stronger effect = lower value
Outline: as §1

[3] = target: Histamine N-methyltransferase (Homo sapiens) (UniProt P50135); settings: purified enzyme, MTase-Glo SAH luminescence; measured here: HNMT inhibition; at 40 µM; stronger effect = lower value
Outline: as §1

[4] = target: Nicotinamide N-methyltransferase (Homo sapiens) (UniProt P40261); settings: purified enzyme, MTase-Glo SAH luminescence; measured here: NNMT inhibition; at 40 µM; stronger effect = lower value
Outline: as §1

[5] = target: Phenylethanolamine N-methyltransferase (Homo sapiens) (UniProt P11086); settings: purified enzyme, MTase-Glo SAH luminescence; measured here: PNMT inhibition; at 40 µM; stronger effect = lower value
Outline: as §1
% is scaled to controls: 0 for no effect and ±100 for the full control effect.

| Compound | activity change, negative = inhibition [1] | activity change, negative = inhibition [2] | activity change, negative = inhibition [3] | activity change, negative = inhibition [4] | activity change, negative = inhibition [5] |
| --- | --- | --- | --- | --- | --- |
| CC(C)c1ccc(NC(=O)c2ncn3c2C(=O)N(C2CC2)C(C)(C(=O)NCc2ccc(F)cc2)C3)cc1 (centres undefined) | -10.5% | 0% | 2.6% | 0.362% | 1.8% |
| COCC1CN(Cc2c(C)n[nH]c2C)CC12CCNCC2 (centres undefined) | -4.47% | -8.37% | -8.63% | -2.29% | -1.5% |
| CC(C)=CCC[C@](C)(O[C@@H]1O[C@H](CO[C@@H]2O[C@H](CO)[C@@H](O)[C@H](O)[C@H]2O)[C@@H](O)[C@H](O)[C@H]1O)C1CC[C@]2(C)[C@@H]1[C@H](O)CC1[C@@]3(C)CC[C@H](O[C@@H]4O[C@H](CO)[C@@H](O)[C@H](O)[C@H]4O[C@@H]4O[C@H](CO)[C@@H](O)[C@H](O)[C@H]4O)C(C)(C)[C@@H]3CC[C@]12C (some centres undefined) | -1.98% | – | 3.69% | – | – |
| CN1C(=O)c2cc(C(=O)Nc3ccccc3Br)nn2CC1(C)C(=O)NC1CCCCC1 (centres undefined) | 3.67% | 0% | 6% | 8.74% | 3.13% |
| Cc1ccc(CCNC(=O)c2nnn3c2COC(c2ccc(Cl)cc2)C3)cc1 (centres undefined) | 2.63% | 0% | 1.94% | -1.91% | 0.929% |
| CC(C)OCCCNC(=O)CCCc1nnc2n3nc(-c4ccccc4)nc3c3ccccc3n12 | 1.3% | 4.39% | 4.14% | 11.1% | -0.598% |
| CC(=O)N1CCC(NCc2cccnc2Oc2ccccc2C)CC1 | -4.57% | 0.007% | -1.11% | -2.8% | 0.316% |
| COc1ncc(Nc2ncc([C@@H](C)N3CCN(S(C)(=O)=O)CC3)cc2-c2nc(C)nc(N)n2)cc1F | -17.6% | -14.9% | -18.4% | -22.3% | -32.2% |
| CC(C)(OC1OC(CO)C(O)C(O)C1O)C1CCC(O)(CO)C2CC(=O)C(C)(O)C2C1 (centres undefined) | 4.79% | 5.28% | 9.09% | -5.54% | 0.727% |
| CCOC(=O)c1cc2n(n1)CC(C)(C(=O)NCc1ccccc1)N(CCc1ccc(OCC)cc1)C2=O (centres undefined) | -3.13% | -1.08% | 2.83% | -2.57% | -2.89% |
| CCOc1cc(CC(=O)NC(CC(C)C)c2ccccc2N2CCCCC2)ccc1C(=O)O (centres undefined) | -4.69% | – | 1.61% | – | – |
| CS(=O)(=O)c1ccc(-c2cnc(N)c(C(=O)Nc3ccccc3)n2)cc1 | -4.09% | 7.77% | 4.65% | -10.1% | -1.7% |
| CCOc1ccccc1CN1C(=O)c2cc3ccccc3n2CC1(C)C(=O)NCCCOC(C)C (centres undefined) | 3.79% | 0.785% | 1.68% | 5.47% | 0.169% |
| NS(=O)(=O)c1cc(Cl)c(Cl)c(S(N)(=O)=O)c1 | 6.22% | 10.5% | 8.41% | -3.73% | 5.28% |
| CC(C)CCNC(=O)C1(C)Cn2c(cc3ccccc32)C(=O)N1CCCc1ccccc1 (centres undefined) | -2.11% | 6.35% | 0.185% | -3.89% | -1.42% |
| CCc1nc(-c2c3n(c(=O)n(CC(=O)Nc4cccc(C)c4)c2=O)CCCCC3)no1 | -2.35% | 0.324% | 1.39% | -1.65% | 1.68% |
| CCOC(=O)c1cc2n(n1)CC(C)(C(=O)NC1CCCC1)N(c1cccc(OC)c1)C2=O (centres undefined) | 0.522% | 0.73% | 0.905% | 5% | 3.13% |
| Cc1ccc(NC(=O)N2Cc3c(sc4c3CCCC4)-n3cccc3C2c2ccccc2)cc1 (centres undefined) | 1.98% | 4.25% | 4.75% | -1.17% | 5% |
| COC(=O)c1ncn2c1C(=O)N(c1ccc3c(c1)OCO3)C(C)(C(=O)NCCCOC(C)C)C2 (centres undefined) | 3.42% | 0.477% | 14.7% | 4.07% | 9.9% |
| COCc1c(O)c(C(=O)O)c(C)c2c1OC(=O)c1c(C)cc(O)c(CO)c1O2 | -12.7% | -10.2% | 4.63% | -16.5% | -8.46% |
| C=Cc1ccc(CSc2nnc3n(Cc4ccccc4)c(=O)c4ccccc4n23)cc1 | -0.516% | 3.3% | -3.92% | -0.244% | 1.73% |
| Cc1ccccc1N1C(=O)c2cc(-c3ccco3)nn2CC1(C)C(=O)NC1CCCCC1 (centres undefined) | -4.17% | 2.35% | -6.92% | 2.54% | -6.43% |
| C[C@@H]1O[C@@H](O[C@H]2[C@H](O)[C@@H](O)[C@H](O[C@H]3[C@H](O[C@H]4CC[C@@]5(C)C(=CC[C@@H]6C5CC[C@]5(C)[C@@H]7[C@H](C[C@@H]65)O[C@]5(CC[C@@](C)(CO[C@@H]6O[C@H](CO)[C@@H](O)[C@H](O)[C@H]6O)O5)[C@H]7C)C4)O[C@H](CO)[C@@H](O)[C@@H]3O)O[C@@H]2CO)[C@H](O)[C@H](O)[C@H]1O (some centres undefined) | 1.1% | 0.307% | 11.5% | -12.7% | -4.63% |
| Cc1ccsc1CN1CCc2[nH]nc(C(=O)N(C)C)c2C1 | -7.76% | -8.69% | -3.97% | -18.9% | -8.14% |
| O=S(=O)(c1ccccc1)c1nnn2c1nc(NCCc1ccc(Cl)cc1)c1ccccc12 | -3.33% | 5.53% | 1.08% | -1.03% | -3.51% |
| C[C@H](NC(CCc1ccccc1)C(=O)O)C(=O)N1CCC[C@H]1C(=O)O (some centres undefined) | -6.84% | 3.61% | 0.808% | -5.27% | 2.17% |
| O=C(c1cc[n+]([O-])cc1)N1CCC2(CCCN(CCC3CCCCC3)C2)C1 (centres undefined) | -2.29% | -0.67% | -2.13% | -12% | 11% |
| O=c1c(-c2ccc(O)cc2)coc2cc(O)ccc12 | -6.16% | 3.05% | -0.645% | -13.1% | -5.47% |
| Cc1cccc(N2CCN(C(=O)c3ccc4c(=O)[nH]c5c(C(=O)NC(C)C)sc(=S)n5c4c3)CC2)c1C | -61.2% | -0.081% | -25.7% | -64% | -13.8% |
